For 153 variants, enrichment ratio results are on record in a collection of fitness landscapes (doi:10.1126/science.1257360).

This is one part of the list.

B1: PhoQ; a variant is named by its letters at X, in order, P23837 (parent)
chain: MKKLLRLFFPLSLRVRFLLATAAVVLVLSLAYGMVALIGYSVSFDKTTFRLLRGESNLFYTLAKWENNKLHVELPENIDKQSPTMTLIYDENGQLLWAQRDVPWLMKMIQPDWLKSNGFHEIEADVNDTSLLLSGDHSIQQQLQEVREDDDDAEMTHSVAVNVYPATSRMPKLTIVVVDTIPVELKSSYMVWSWFIYVLSANLLLVIPLLWVAAWWSLRPIEALAKEVRELEEHNRELLNPATTRELTSLVRNLNRLLKSERERYDKYRTTLTDLTHSLKTPLXXLQXXLRSLRSEKMSVSDAEPVMLEQISRISQQIGYYLHRASMRGGTLLSRELHPVAPLLDNLTSALNKVYQRKGVNISLDISPEISFVGEQNDFVEVMGNVLDNACKYCLEFVEISARQTDEHLYIVVEDDGPGIPLSKREVIFDRGQRVDTLRPGQGVGLAVAREITEQYEGKIVAGESMLGGARMEVIFGRQHSAPKDE

In this assay the parent is B1. Nature of the assay: enrichment ratio after two sorts for PhoP signalling (ratio (wild type AVST 3.29)); higher = more functional. The note with it: with PhoP (E. coli).
Regarding GIME, the enrichment ratio was found to be 13.3.
As for AICS, the figure is 18.9.
With VLCQ, the enrichment ratio was at most 0.25.
As for QPQD, the figure is at most 0.25.
As for AYLG, the figure is 3.91; as for FQQS, at most 0.25.
On to IVTR, for which the enrichment ratio was at most 0.25.
As for TDRQ, the figure is at most 0.25; as for YLSY, at most 0.25; as for TPHY, at most 0.25.
As for YDEQ, the figure is at most 0.25; as for YAAM, at most 0.25.
As for QSSW, the figure is at most 0.25.
Regarding VIMH, the enrichment ratio was at most 0.25.
As for FPWP, the figure is at most 0.25.
As for NYEG, the figure is at most 0.25; as for AEHF, at most 0.25.
As for HLER, the figure is at most 0.25; as for RVDR, at most 0.25; as for MMVE, at most 0.25.
Consider IQKY, for which the enrichment ratio was at most 0.25.
As for WSDS, the figure is at most 0.25.
As for PPWF, the figure is at most 0.25.
On to TVEF, for which the enrichment ratio amounted to 3.81.
As for APIT, the figure is at most 0.25.
For VYDN, the enrichment ratio was at most 0.25.
Consider TTHG, for which the enrichment ratio turned out to be 9.57.
As for APED, the figure is at most 0.25.
As for ETCH, the figure is at most 0.25; as for KHRG, at most 0.25.
As for DQSY, the enrichment ratio was at most 0.25.
As for CLFN, the figure is at most 0.25; as for TDVW, at most 0.25.
As for GQCQ, the figure is at most 0.25.
As for KLSE, the figure is at most 0.25; as for EIEF, at most 0.25.
For ILTY, the enrichment ratio was at most 0.25.
Take QWFS: the enrichment ratio was at most 0.25.
As for LPMF, the figure is at most 0.25.
In the case of FEHI, the enrichment ratio is at most 0.25.
As for SPSR, the figure is at most 0.25.
As for GHLD, the figure is at most 0.25; as for DFMW, at most 0.25; as for VTWE, at most 0.25.
As for THNT, the figure is 5.72; as for EKAR, at most 0.25.
SQFQ: the enrichment ratio is at most 0.25.
As for KCIT, the figure is at most 0.25; as for YDGY, at most 0.25.
As for QNFY, the figure is at most 0.25.
As for SHKH, the figure is at most 0.25; as for RQNS, at most 0.25; as for ARKS, at most 0.25.
In the case of NNDK, the enrichment ratio was at most 0.25.
As for ANER, the figure is at most 0.25.
As for AWCN, the figure is at most 0.25; as for SDQT, at most 0.25; as for RDFV, at most 0.25.
As for SMWT, the figure is at most 0.25; as for LETW, at most 0.25; as for YSPW, at most 0.25.
Consider RCIY, for which the enrichment ratio was at most 0.25.
As for DQLK, the figure is at most 0.25; as for HNFK, at most 0.25; as for LFLC, at most 0.25.
As for FWMR, the figure is at most 0.25; as for HGGF, at most 0.25; as for WMGN, at most 0.25.
As for KGVL, the figure is at most 0.25; as for HLLM, at most 0.25.
In the case of YVGW, the enrichment ratio is at most 0.25.
With GING, the enrichment ratio was at most 0.25.
As for TATT, the figure is 8.46; as for HMLC, at most 0.25.
With TEMF, the enrichment ratio was found to be 5.53.
As for SLHE, the figure is at most 0.25.
With NTHI, the enrichment ratio was at most 0.25.
As for NHDS, the figure is at most 0.25; as for ECLG, at most 0.25.
As for RLYE, the figure is at most 0.25; as for FIKK, at most 0.25.
As for LKHR, the figure is at most 0.25; as for NLDS, at most 0.25.
As to FLTM, the enrichment ratio was at most 0.25.
For the variant VGHY, the enrichment ratio was at most 0.25.
Regarding DDPP, the enrichment ratio was at most 0.25.
As for QVTT, the figure is at most 0.25; as for WPWA, at most 0.25; as for IYAA, at most 0.25.
As for LVTN, the figure is at most 0.25; as for PIYN, at most 0.25; as for WMVI, at most 0.25.
As for FTDH, the figure is at most 0.25; as for LRLL, at most 0.25; as for QPKP, at most 0.25.
As for FDCA, the enrichment ratio is at most 0.25.
For the variant MRHA, the enrichment ratio was at most 0.25.
As for GWLT, the figure is at most 0.25.
As for YLSQ, the figure is 0.283.
As to MWRH, the enrichment ratio is at most 0.25.
As for KREH, the figure is at most 0.25.
With SYDE, the enrichment ratio was at most 0.25.
For the variant MRNG, the enrichment ratio was at most 0.25.
In the case of WMLD, the enrichment ratio is at most 0.25.
As for MPHL, the figure is at most 0.25; as for WIGR, at most 0.25.
As for HACP, the figure is at most 0.25.
As for YMKP, the figure is at most 0.25.
Consider FMLW, for which the enrichment ratio is 0.253.
Take FLGD: the enrichment ratio is at most 0.25.
As for EEIN, the figure is at most 0.25; as for HKNG, at most 0.25; as for WLWH, at most 0.25.
For the variant YCPI, the enrichment ratio is at most 0.25.
As for EVNW, the figure is at most 0.25; as for KCLF, at most 0.25; as for DIDS, at most 0.25.
Turning to SFGE, the enrichment ratio is at most 0.25.
As to ECIG, the enrichment ratio was at most 0.25.
As for WQGD, the figure is at most 0.25; as for IFLM, at most 0.25; as for FQQF, at most 0.25.
For the variant DIEF, the enrichment ratio was at most 0.25.
As for NPQD, the figure is at most 0.25; as for GHNA, at most 0.25; as for FFDQ, at most 0.25.
As for ESAD, the figure is at most 0.25; as for MMML, at most 0.25.
As for ADKH, the figure is at most 0.25; as for KFFW, at most 0.25.
Regarding GAEF, the enrichment ratio was at most 0.25.
As to VCLV, the enrichment ratio was found to be 13.
As for PYIF, the figure is 0.283; as for ITSE, at most 0.25.
As for RGGQ, the figure is at most 0.25; as for SELH, 19.4.
As for YGSP, the figure is at most 0.25; as for VFPE, at most 0.25.
Regarding FLFI, the enrichment ratio was at most 0.25.
Turning to LPVD, the enrichment ratio is at most 0.25.
As for SPPM, the figure is at most 0.25; as for STER, at most 0.25; as for HEWS, at most 0.25.
For NVIR, the enrichment ratio is at most 0.25.
DHGN: the enrichment ratio is at most 0.25.
As for RTSC, the figure is at most 0.25.
As to EPDF, the enrichment ratio was at most 0.25.
As for KISE, the figure is at most 0.25; as for DKHQ, at most 0.25; as for QWQL, at most 0.25.
As for FHPD, the figure is at most 0.25; as for YTFN, at most 0.25; as for FQVY, at most 0.25.
